Where a name gives a salt, the structure may show the parent alone. ± gives the standard deviation of the averaged measurements. Whole data set: some 2,000 compounds, median “relative cell viability vs DMSO, compound + 0.2 uM CuET” near 1, cut for the lowest 2% near 0.25. This is one part of the list.

This experiment deals with TE10. Put plainly: relative cell viability vs DMSO, compound + 0.2 uM CuET (fraction); TE10 is an esophageal squamous carcinoma line; higher = less cytotoxic. The note with it: 2 µM; co-treatment: CuET (bis(diethyldithiocarbamate)copper) 0.2 uM; 48 h. How it is done:
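TE10 ESCC cells (1,000/well, 384-well plates) were treated with Selleck bioactive library compounds at 2 uM combined with 0.2 uM CuET (copper diethyldithiocarbamate) for 48 h. Viability was read by CellTiter-Glo and expressed relative to DMSO wells. Two technical replicates (A, B).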
As for `O=C(/C=C/n1cnc(-c2cc(C(F)(F)F)cc(C(F)(F)F)c2)n1)N1CC(F)(F)C1`, the relative cell viability came to 0.355 ± 0.025.

Turning to `CC(CCC(=O)NCCS(=O)(=O)O)C1CCC2C3C(O)CC4CC(O)CCC4(C)C3CCC12C` (stereo not given) [Sodium Tauroursodeoxycholate (TUDC)], the relative cell viability stood at 1.24 ± 0.12.

As for `Cc1cc(Nc2nc(N[C@@H](C)c3ncc(F)cn3)ncc2Cl)[nH]n1`, the relative cell viability amounted to 0.892 ± 0.21.

Regarding `COC[C@H](NC(=O)c1cnc(C)s1)C(=O)N[C@@H](COC)C(=O)N[C@@H](Cc1ccccc1)C(=O)[C@@]1(C)CO1` [Oprozomib (ONX 0912)], the relative cell viability was 0.182 ± 0.0023.

Consider `CC[C@@H]1/C=C(\C)C[C@H](C)C[C@H](OC)[C@H]2O[C@@](O)(C(=O)C(=O)N3CCCC[C@H]3C(=O)O[C@H](/C(C)=C/[C@@H]3CC[C@H](Cl)[C@H](OC)C3)[C@H](C)[C@@H](O)CC1=O)[C@H](C)C[C@@H]2OC` [Pimecrolimus], for which the relative cell viability turned out to be 1.144 ± 0.0096.

As to `O=C(O)CC1CC(c2ccccc2)=NO1` (stereo not given), the relative cell viability stood at 1.13 ± 0.046.

As for `Cn1c([N+](=O)[O-])cnc1COC(N)=O` [Ronidazole], the relative cell viability worked out at 1.24 ± 0.13.

As for `CCN(c1cc(-c2ccc(CN3CCOCC3)cc2)cc(C(=O)NCc2c(C)cc(C)[nH]c2=O)c1C)C1CCOCC1`, the relative cell viability turned out to be 0.974 ± 0.086.

On to `C=CC(=O)Nc1ccc2ncnc(Nc3ccc(OCc4cccc(F)c4)c(Cl)c3)c2c1`, for which the relative cell viability is 0.362 ± 0.036.

Turning to `CC1=C(CC(=O)O)c2cc(F)ccc2/C1=C\c1ccc([S+](C)[O-])cc1` (stereo not given) [Sulindac], the relative cell viability turned out to be 0.999 ± 0.16.

For `O=C(O)c1ccccc1C(=O)Nc1ccc(-c2ccccc2)cc1` [Kartogenin], the relative cell viability is 0.91 ± 0.047.

In the case of `CC(=O)N1CCN(CCOc2ccc(C3CCN(C4=Nn5c(nnc5C(F)(F)F)CC4)CC3)cc2)CC1`, the relative cell viability was 0.928 ± 0.0099.

Consider `C=CC(=O)N1CCC[C@@H](n2nc(-c3ccc(Oc4ccccc4)cc3)c3c(N)ncnc32)C1`, for which the relative cell viability was determined as 0.459 ± 0.46.

Consider `CCc1cccc2c3c([nH]c12)C(CC)(CC(=O)O)OCC3` (stereo not given) [Etodolac], for which the relative cell viability turned out to be 1.16 ± 0.012.

Consider `Cc1noc(NS(=O)(=O)c2ccc(N)cc2)c1C` [Sulfisoxazole], for which the relative cell viability is 1.09 ± 0.011.

For `CCC[C@H](NC(=O)[C@@H]1[C@H]2CCC[C@H]2CN1C(=O)[C@@H](NC(=O)[C@@H](NC(=O)c1cnccn1)C1CCCCC1)C(C)(C)C)C(=O)C(=O)NC1CC1` [Telaprevir (VX-950)], the relative cell viability was determined as 0.934 ± 0.11.

Regarding `C[C@@H]1CN(CC(=O)Nc2ccc3c(c2)Cc2cccc(-c4cc(=O)cc(N5CCOCC5)o4)c2S3)C[C@H](C)O1`, the relative cell viability was 1.26 ± 0.052.

With `OCC(O)C(O)CO` (stereo not given) [Erythritol], the relative cell viability worked out at 1.16 ± 0.22.

Take `C[C@]12CC[C@@H]3c4ccc(O)cc4CC[C@H]3[C@@H]1C[C@@H](O)[C@@H]2O` [Estriol]: the relative cell viability is 1.01 ± 0.085.

Consider `Cc1nc(N)sc1-c1ccnc(Nc2ccc(N3CCOCC3)cc2)n1`, for which the relative cell viability is 0.9362 ± 0.0036.

Take `CNC(=O)[C@H](Cc1ccccc1)NC(=O)[C@H](CC(C)C)[C@H](CSc1cccs1)C(=O)NO` [Batimastat (BB-94)]: the relative cell viability was 0.6892 ± 0.0037.

Regarding `CCOC(=O)[C@H](CCc1ccccc1)N[C@@H](C)C(=O)N1CCC[C@H]1C(=O)O` [Enalapril Maleate], the relative cell viability came out at 0.987 ± 0.1.

Take `COc1nc(-c2ccc3c(c2)OCO3)n(-c2ccc(NC(=O)CSc3ccccc3)cc2)n1` [SecinH3]: the relative cell viability was determined as 1.25 ± 0.17.

In the case of `O=C(Nc1ccc(-c2ccnc(Nc3ccc(N4CCOCC4)cc3)n2)cc1)C1CCCN1` (stereo not given), the relative cell viability amounted to 1.23 ± 0.15.

As to `COc1ccc2[nH]c([S+]([O-])Cc3ncc(C)c(OC)c3C)nc2c1` (stereo not given) [Omeprazole], the relative cell viability was 1.27 ± 0.18.

With `Nc1cccc2c1CN(C1CCC(=O)NC1=O)C2=O` (stereo not given) [Lenalidomide (CC-5013)], the relative cell viability is 1.37 ± 0.16.

In the case of `NC(=S)N/N=C/c1ncccc1N` [Triapine], the relative cell viability was determined as 1.28 ± 0.11.

As to `Cn1c2ccccc2c2c3c(c4c5ccccc5n(CCC#N)c4c21)CNC3=O`, the relative cell viability is 0.893 ± 0.047.

For the molecule `COc1ccc(CNC(=O)Nc2ncc([N+](=O)[O-])s2)cc1`, the relative cell viability was 1.15 ± 0.19.

Consider `OCCOCCN1CCN(C(c2ccccc2)c2ccc(Cl)cc2)CC1` (stereo not given) [Hydroxyzine 2HCl], for which the relative cell viability turned out to be 1.14 ± 0.14.

For `C/C(=N\NC(=O)c1cccc(S(=O)(=O)N2CCOCC2)c1)c1cc(Cl)ccc1O`, the relative cell viability is 0.894 ± 0.038.

For `O=C(NS(=O)(=O)c1ccc(Br)s1)c1ccc(Cl)cc1Cl` [Tasisulam], the relative cell viability stood at 1.16 ± 0.017.

On to `[I-].[K+]` [Potassium Iodide], for which the relative cell viability was 1.16 ± 0.013.

For `Cc1cc(-n2c(=O)[nH]c(=O)n(C)c2=O)ccc1Oc1ccc(SC(F)(F)F)cc1` [Toltrazuril], the relative cell viability was 1.13 ± 0.24.

As for `Cc1ccccc1N1C(=O)c2cc(S(N)(=O)=O)c(Cl)cc2NC1C` (stereo not given) [Metolazone], the relative cell viability was 0.96465 ± 7.9e-05.

Consider `O=NN(CCCl)C(=O)NC1CCCCC1` [Lomustine], for which the relative cell viability worked out at 0.963 ± 0.061.

Regarding `COc1cc(CCC(C)=O)ccc1O` [Vanillylacetone], the relative cell viability amounted to 1.08 ± 0.067.

On to `COc1cnc(NS(=O)(=O)c2ccc(N)cc2)nc1` [Sulfameter], for which the relative cell viability worked out at 1.16 ± 0.073.

For the molecule `CC(C)c1cc(C(=O)N2Cc3ccc(CN4CCN(C)CC4)cc3C2)c(O)cc1O`, the relative cell viability came to 0.741 ± 0.025.

In the case of `C[C@]12CC[C@@H]3c4ccc(O)cc4CC[C@H]3[C@@H]1CCC2=O` [Estrone], the relative cell viability is 1.042 ± 0.0093.

In the case of `Nc1ncnc2c1c(-c1cccc(OCc3ccccc3)c1)cn2C1CC(CN2CCC2)C1` (stereo not given), the relative cell viability came out at 1 ± 0.035.

With `COc1cc(C(=O)NC2CCCNC2)cc(OC)c1OC` (stereo not given) [Troxipide], the relative cell viability came to 1.2301 ± 0.0012.

In the case of `CCCCCCCCc1ccc(CCC(N)(CO)CO)cc1` [Fingolimod (FTY720) HCl], the relative cell viability was determined as 0.924 ± 0.031.

Consider `Cn1cc(-c2ccc3nnc(C(F)(F)c4ccc5ncccc5c4)n3n2)cn1`, for which the relative cell viability was determined as 0.79 ± 0.39.

On to `c1ccc2[nH]c(-c3cscn3)nc2c1` [Thiabendazole], for which the relative cell viability came out at 0.929 ± 0.01.

As for `CCC(CC)CC1(C(=O)Nc2ccccc2SC(=O)C(C)C)CCCCC1`, the relative cell viability stood at 0.962 ± 0.19.

Consider `COC1=C2C[C@@H](C)C[C@H](OC)[C@H](O)[C@@H](C)/C=C(\C)[C@H](OC(N)=O)[C@@H](OC)/C=C\C=C(/C)C(=O)NC(=CC1=O)C2=O` [Geldanamycin], for which the relative cell viability is 0.712 ± 0.16.

As for `CN1CC2c3ccccc3Oc3ccc(Cl)cc3C2C1` (stereo not given) [Asenapine], the relative cell viability was found to be 1.2 ± 0.058.

Regarding `CNC(=O)Nc1ccc(-c2nc(N3CC4CCC(C3)O4)c3cnn(C4CCC5(CC4)OCCO5)c3n2)cc1`, the relative cell viability was 0.602 ± 0.047.

Regarding `COc1cc(Nc2ncc(F)c(Nc3ccc4c(n3)N(COP(=O)(O)O)C(=O)C(C)(C)O4)n2)cc(OC)c1OC` [Fostamatinib (R788)], the relative cell viability came to 0.725 ± 0.024.

For `Cc1nnc(C(C)C)n1C1C[C@H]2CC[C@@H](C1)N2CC[C@H](NC(=O)C1CCC(F)(F)CC1)c1ccccc1` (stereo in doubt) [Maraviroc], the relative cell viability turned out to be 1.09 ± 0.018.

As for `CCCCCCCN(CC)CCCC(O)c1ccc(NS(C)(=O)=O)cc1` (stereo not given) [Ibutilide Fumarate], the relative cell viability was found to be 1.04 ± 0.081.

As for `Cn1c(=O)cc(N2CCC[C@@H](N)C2)n(Cc2ccccc2C#N)c1=O` [Alogliptin], the relative cell viability was found to be 1.1 ± 0.21.

As for `CC1(C)S[C@@H]2[C@H](NC(=O)[C@H](NC(=O)N3CCN(S(C)(=O)=O)C3=O)c3ccccc3)C(=O)N2[C@H]1C(=O)O` [Mezlocillin Sodium], the relative cell viability was 1.13 ± 0.041.

In the case of `Cc1cccc(-c2[nH]c(CNc3ccccc3F)nc2-c2ccc3ncnn3c2)n1`, the relative cell viability is 1.05 ± 0.11.

For the molecule `O=C(Nc1c(Cl)cncc1Cl)c1ccc(OC(F)F)c(OCC2CC2)c1` [Roflumilast], the relative cell viability was determined as 1.03 ± 0.0057.

On to `CCOC(=O)OC(C)OC1=C(C(=O)Nc2ccccn2)N(C)S(=O)(=O)c2ccccc21` (stereo not given) [Ampiroxicam], for which the relative cell viability worked out at 1.24 ± 0.21.

With `CCCS(=O)(=O)Nc1ccc(F)c(C(=O)c2c[nH]c3ncc(-c4ccc(Cl)cc4)cc23)c1F` [Vemurafenib (PLX4032, RG7204)], the relative cell viability is 1.32 ± 0.11.

Turning to `C[C@@H]1O[C@@H](O[C@H]2[C@H](Oc3cc(O)c(C(=O)CCc4ccc(O)cc4)c(O)c3)O[C@H](CO)[C@@H](O)[C@@H]2O)[C@H](O)[C@H](O)[C@H]1O` [Naringin Dihydrochalcone], the relative cell viability was found to be 1.07 ± 0.034.

As to `CCCCNC(=O)NS(=O)(=O)c1ccc(C)cc1` [Tolbutamide], the relative cell viability turned out to be 1.13 ± 0.076.

`O=S(=O)(O)CCS` [Mesna]: the relative cell viability came to 1.08 ± 0.024.

Consider `CNCCC(Oc1ccc(C(F)(F)F)cc1)c1ccccc1` (stereo not given) [Fluoxetine HCl], for which the relative cell viability stood at 1.16 ± 0.068.

With `Cc1nc2n(c(=O)c1CCN1CCC(c3noc4cc(F)ccc34)CC1)CCCC2` [Risperidone], the relative cell viability was 1.11 ± 0.041.

For `C[C@@H](CN1CC(=O)NC(=O)C1)N1CC(=O)NC(=O)C1` [Dexrazoxane HCl (ICRF-187, ADR-529)], the relative cell viability was found to be 1.1 ± 0.015.

In the case of `OCc1cc(C(O)CNCCCCCCOCCCCc2ccccc2)ccc1O` (stereo not given) [Salmeterol Xinafoate], the relative cell viability stood at 1.17 ± 0.076.

Turning to `CC(=O)OCC(=O)[C@@]12N=C(C)O[C@@H]1C[C@H]1[C@@H]3CCC4=CC(=O)C=C[C@]4(C)[C@H]3[C@@H](O)C[C@@]12C` [Deflazacort], the relative cell viability is 1.03 ± 0.012.

Regarding `CCN1CC(CCN2CCOCC2)C(c2ccccc2)(c2ccccc2)C1=O` (stereo not given) [Doxapram HCl], the relative cell viability was 0.987 ± 0.066.

In the case of `CC(=O)N[C@H]1[C@H]([C@H](O)[C@H](O)CO)OC(C(=O)O)=C[C@@H]1NC(=N)N` [Zanamivir], the relative cell viability was 1.28 ± 0.12.

`CCC(=O)O[C@]1(C(=O)CCl)[C@@H](C)C[C@H]2[C@@H]3C[C@H](F)C4=CC(=O)C=C[C@]4(C)[C@@]3(F)[C@@H](O)C[C@@]21C` [Halobetasol Propionate]: the relative cell viability amounted to 0.868 ± 0.059.

As for `Cc1coc2c1C(=O)C(=O)c1c-2ccc2c(C)cccc12` [Tanshinone I], the relative cell viability was determined as 0.465 ± 0.034.

Regarding `CCC1=C(C)CN(C(=O)NCCc2ccc(S(=O)(=O)NC(=O)N[C@H]3CC[C@H](C)CC3)cc2)C1=O` [Glimepiride], the relative cell viability came out at 1.23 ± 0.085.

`COc1cc(Nc2nc3ccccc3nc2NS(=O)(=O)c2ccc(NC(=O)c3ccc(C)c(OC)c3)cc2)cc(OC)c1`: the relative cell viability was 1.06 ± 0.041.

Consider `C[C@@]12C[C@@]3(O)O[C@@H](O1)[C@]1(COC(=O)c4ccccc4)[C@H]3C[C@@]12O[C@@H]1O[C@H](CO)[C@@H](O)[C@H](O)[C@H]1O` [Paeoniflorin], for which the relative cell viability came to 1.16 ± 0.059.

With `CCS(=O)(=O)CCn1c([N+](=O)[O-])cnc1C` [Tinidazole], the relative cell viability was determined as 1.11 ± 0.13.

In the case of `N#C[C@@H]1C[C@@H]2C[C@@H]2N1C(=O)[C@@H](N)C12CC3CC(CC(O)(C3)C1)C2` [Saxagliptin], the relative cell viability was 1.01 ± 0.09.

(Values after the supplement of paper PMC10670038.)
